# Data from paper PMC12040169 (PLOS Biology, 2025).
# The list shows a part of the results.
# Tested on: T1, C. trachomatis L2/434/Bu expressing GFP (CTL2-GFP)
# T1 construct: L2/434/Bu GFP intracellular growth in HeLa cells
# Design: species or system HeLa; C. trachomatis total inclusion area by high-content imaging, normalised to DMSO
# Conditions: total inclusion area; 28.5 h, 10 µM; inhibitor
# Method in brief: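 Post-fluorescence-read fixation, DNA staining with Hoechst and high-content imaging; GFP inclusion area and number per well, and nuclei counts, used as proxies for bacterial growth and host viability.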
row,Structure (SMILES),% of control remaining
1,CCN(c1ccccc1C(=O)O)S(=O)(=O)/C=C/c1ccccc1 [CBK287236],88.7141
2,O=C(c1cnccc1C(F)(F)F)N1CCc2ccccc21 [CBK200401],100.01
3,O=C(/C=C/c1ccc2c(c1)OCO2)NCc1ccc(-c2csnn2)cc1 [CBK149297],87.4518
4,O=C(Nc1ccc(S(=O)(=O)Nc2nccc(C3Cc4ccccc4C(=O)O3)n2)cc1)c1ccccc1 (stereo not drawn) [CBK267306],105.547
5,Cc1ccc2cc(S(=O)(=O)NCCCC(=O)O)ccc2c1 [CBK299818],97.9713
6,O=C(c1ccc(N2CCSCC2)nc1)N1CCC(N2CCOCC2)CC1 [CBK306582],76.9435
7,Cc1nc(C)c(CCC(=O)Nc2cccc(F)c2)c(=O)[nH]1 [CBK305026],51.9118
8,C#CCn1c(=O)n(C)n(C)c1=O [CBK023151],61.1565
9,CCOC(=O)Cn1nc(C)c(Cc2c(Cl)cccc2Cl)c1CC [CBK113223],124.367
10,Cc1ccn(-c2ccc(N3CCC4(CCOC4)C3)nn2)n1 (stereo not drawn) [CBK306302],35.173
11,COc1ccc(/C=C/C(=O)O)cc1S(=O)(=O)NCc1ccccc1 [CBK287252],60.5613
12,COc1ccc2[nH]c3c(c2c1)CCNC31CCN(C(=O)NC(C)(C)C)CC1 [CBK047069],100.477
13,N#Cc1ccc(C(=O)N2C[C@@H]3C[C@H](C2)c2c(-c4cccc(C#N)c4)ccc(=O)n2C3)cc1 [CBK289196],100.872
14,CN(CC(N)=O)c1nc(-c2cccnc2)nc2ccccc12 [CBK306346],93.6165
15,c1ccc2c(Sc3cncc(N4CCCC4)n3)cccc2c1 [CBK089594],85.2412
16,COc1ccc(C(=O)/C=C(\Nc2cccc(C(F)(F)F)c2)C(=O)O)cc1 [CBK264387],111.584
17,CC(=O)Cn1nnnc1C [CBK020588],95.5298
18,COc1ccc(Nc2cccc(-c3cnc(OC)nc3OC)n2)cc1 [CBK036825],117.24
19,Cn1ncc(N2CCC(CNC(=O)c3ccc(F)cc3Cl)C2)cc1=O (stereo not drawn) [CBK306643],25.1459
20,COc1cc2c(cc1OC)CN(CC(N)=O)CC2 [CBK126391],95.2895
21,CCN1CC(C(=O)N2CCCC(COc3ccc(F)cc3)C2)CC1=O (stereo not drawn) [CBK282028],103.237
22,CCN(Cc1ccncc1)C(=O)NCc1cccnc1 [CBK145054],88.8895
23,CCOC(=O)C1(Cc2cc(-c3ccc(F)cc3)no2)CCNCC1 [CBK284581],79.9611
24,CCN(CC)C(=O)CN(CCc1ccc(OC)c(OC)c1)C(=O)NCCN1CCOCC1 [CBK158734],91.2189
25,O=C(NCCC1=CCCCC1)Nc1ccc(F)c(F)c1F [CBK043265],93.5971
26,Cc1occc1C(=O)Nc1nc(CC(=O)N2CC(C)SC(C)C2)cs1 (stereo not drawn) [CBK306271],47.6525

row,Structure (SMILES),% of control remaining
1,O=C(NC(=S)Nc1ccccc1C(=O)O)c1ccc(Cl)cc1 [CBK265044],78.7506
2,O=C(OCCC1SC(NC2CC3C=CC2C3)=NC1=O)c1cc(F)ccc1F (stereo not drawn) [CBK200059T],95.6191
3,O=C(O)C1CCCCC1C(=O)N1CCN(C(c2ccccc2)c2ccccc2)CC1 (stereo not drawn) [CBK265480],90.6979
4,COc1ccc(Cn2nc3nnc(-c4ccc(F)cc4)c(-c4ccc(F)cc4)n3c2=O)cc1 [CBK286183],96.6595
5,CN1CCCC1CCNC(=O)c1ccc(-c2ccoc2)nc1 (stereo not drawn) [CBK156255],112.418
6,O=C(Cn1ccccc1=O)Nc1ccc(OCC(F)(F)F)nc1 [CBK304556],44.181
7,NC[C@H]1CC[C@H](C(=O)NCC2CCCN(Cc3ccccc3)C2)CC1 (stereo partly drawn) [CBK282764],97.3004
8,O=C(NCCc1ccccc1)c1nc(-c2ccncc2)cs1 [CBK288604],92.2373
9,COc1cc(C)c(S(=O)(=O)n2c(C)nc3ccccc32)cc1C [CBK265464],91.0785
10,O=C(NCC1CCCO1)[C@H]1CCCC[C@H]1C(=O)O (stereo partly drawn) [CBK287104],104.741
11,COC(=O)c1cn(Cc2ccccc2)nn1 [CBK073903],79.3067
12,O=C(O)CCCNS(=O)(=O)c1ccc([N+](=O)[O-])cc1 [CBK261317],112.571
13,COC(=O)c1c(NC(=O)c2c(C)c(-c3ccc(Cl)cc3Cl)nc3ccccc23)sc2c1CCC(C)C2 (stereo not drawn) [CBK262644],106.037
14,Cc1nn(C)cc1C(=O)NC(Cc1ccsc1)c1cccnc1 (stereo not drawn) [CBK285392],89.0834
15,COc1nc(N(C)C)nc(N2CC(=O)N(c3ccccc3)C2=N)n1 [CBK269079],91.1962
16,CSc1nc(O)c(C(c2ccc(C(=O)O)cc2)c2c(O)nc(SC)nc2O)c(O)n1 [CBK265288],81.846
17,CC(=O)N1CCC[C@H]2NC(=O)CNC(=O)C3(C/C=C/C[C@H]21)CCNCC3 [CBK292173],84.0973
18,O=C(C1CCCCC1)N1CC(n2nc(-c3ccccc3)ccc2=O)C1 [CBK284616],112.642
19,COc1ccc(CCNC(=O)c2ccccc2NS(=O)(=O)c2cc(C(=O)O)ccc2OC)cc1 [CBK297506],108.369
20,Cc1ccc(C(C)(C)C(=O)N2CCC(CC(=O)N(C)C)CC2)cc1 [CBK281973],98.1617
21,CC(C)c1ccc(N2C(=O)N[C@@H]3CCN(S(=O)(=O)c4ccccc4)[C@@H]3C2=O)cc1 [CBK289289],107.89
22,CNc1nc(NCCc2cnc(=O)n(C)c2O)cc(C2CCOC2)n1 (stereo not drawn) [CBK307156],69.9751
23,Cc1cccc(CN(CCN)C(=O)Nc2ccc(C(C)(C)C)cc2)n1 [CBK046230C],48.3311
24,CC(NC(=O)C(C)(C)C)c1nc(-c2cccnc2)n[nH]1 (stereo not drawn) [CBK104007],100.145
25,CC(=O)Nc1ccc(C#CC2(NC(=O)C3CC3)CCCCC2)cn1 [CBK284676],78.6201
